Holding throughout (test): glycan array binding signal (z-score within array); higher = stronger binding
What all share (conditions): glycan notation: IUPAC condensed, linker removed

Test [1] deals with Gal(b1-4)GlcNAc(b1-2)[Gal(b1-4)GlcNAc(b1-6)]Man(a1-6)[Gal(b1-4)GlcNAc(b1-2)Man(a1-3)]Man(b1-4)GlcNAc(b1-4)[Fuc(a1-6)]GlcNAc. Put shortly:
(§1)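 Arrays were curated from the Consortium for Functional Glycomics database, 3228 in total, and kept only where the protein sequence was available. Binding is expressed as a within-array Z-score. This score was averaged across arrays of the same protein sequence at different concentrations or buffers and across linkers, and negative values can be read as non-binding.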

The target of test [2] is Gal(b1-4)GlcNAc(b1-2)[Gal(b1-4)GlcNAc(b1-6)]Man(a1-6)[GlcNAc(b1-4)][Gal(b1-4)GlcNAc(b1-2)Man(a1-3)]Man(b1-4)GlcNAc(b1-4)GlcNAc. In a few lines:
as §1

For test [3], the target named is Gal(b1-4)GlcNAc(b1-2)[Gal(b1-4)GlcNAc(b1-6)]Man(a1-6)[GlcNAc(b1-4)][Gal(b1-4)GlcNAc(b1-2)[Gal(b1-4)GlcNAc(b1-4)]Man(a1-3)]Man(b1-4)GlcNAc(b1-4)[Fuc(a1-6)]GlcNAc. In a few lines: as §1
Test [4] has as its target Gal(b1-4)GlcNAc(b1-3)Gal(b1-3)GalNAc. Put shortly:
as §1

For test [5], the target named is Gal(b1-4)GlcNAc(b1-3)Gal(b1-3)GlcNAc. Put shortly:
as §1

Test [6] deals with Gal(b1-4)GlcNAc(b1-3)Gal(b1-4)Glc. Put shortly:
as §1

Test [7] addresses Gal(b1-4)GlcNAc(b1-3)Gal(b1-4)GlcNAc. Put shortly:
as §1

Test [8] concerns the target Gal(b1-4)GlcNAc(b1-3)Gal(b1-4)GlcNAc(b1-2)Man(a1-3)[Gal(b1-4)GlcNAc(b1-3)Gal(b1-4)GlcNAc(b1-2)Man(a1-6)]Man(b1-4)GlcNAc(b1-4)GlcNAc. Put shortly:
as §1

For test [9], the target named is Gal(b1-4)GlcNAc(b1-3)Gal(b1-4)GlcNAc(b1-2)Man(a1-3)[Gal(b1-4)GlcNAc(b1-3)Gal(b1-4)GlcNAc(b1-2)Man(a1-6)]Man(b1-4)GlcNAc(b1-4)[Fuc(a1-6)]GlcNAc. Put shortly:
as §1

Test [10] has as its target Gal(b1-4)GlcNAc(b1-3)Gal(b1-4)GlcNAc(b1-2)[Gal(b1-4)GlcNAc(b1-3)Gal(b1-4)GlcNAc(b1-6)]Man(a1-6)[Gal(b1-4)GlcNAc(b1-3)Gal(b1-4)GlcNAc(b1-2)Man(a1-3)]Man(b1-4)GlcNAc(b1-4)GlcNAc. In a few lines:
as §1

The target of test [11] is Gal(b1-4)GlcNAc(b1-3)Gal(b1-4)GlcNAc(b1-2)[Gal(b1-4)GlcNAc(b1-3)Gal(b1-4)GlcNAc(b1-6)]Man(a1-6)[Gal(b1-4)GlcNAc(b1-3)Gal(b1-4)GlcNAc(b1-2)Man(a1-3)]Man(b1-4)GlcNAc(b1-4)[Fuc(a1-6)]GlcNAc. In a few lines: as §1
In test [12] the target is Gal(b1-4)GlcNAc(b1-3)Gal(b1-4)GlcNAc(b1-3)Gal(b1-4)GlcNAc. In a few lines: as §1
Test [13] concerns the target Gal(b1-4)GlcNAc(b1-3)Gal(b1-4)GlcNAc(b1-3)Gal(b1-4)GlcNAc(b1-2)Man(a1-3)[Gal(b1-4)GlcNAc(b1-3)Gal(b1-4)GlcNAc(b1-3)Gal(b1-4)GlcNAc(b1-2)Man(a1-6)]Man(b1-4)GlcNAc(b1-4)GlcNAc. Put shortly: as §1
Test [14] concerns the target Gal(b1-4)GlcNAc(b1-3)Gal(b1-4)GlcNAc(b1-3)Gal(b1-4)GlcNAc(b1-2)Man(a1-3)[Gal(b1-4)GlcNAc(b1-3)Gal(b1-4)GlcNAc(b1-3)Gal(b1-4)GlcNAc(b1-2)Man(a1-6)]Man(b1-4)GlcNAc(b1-4)[Fuc(a1-6)]GlcNAc. In a few lines: as §1
Test [15] concerns the target Gal(b1-4)GlcNAc(b1-3)Gal(b1-4)GlcNAc(b1-3)Gal(b1-4)GlcNAc(b1-2)[Gal(b1-4)GlcNAc(b1-3)Gal(b1-4)GlcNAc(b1-3)Gal(b1-4)GlcNAc(b1-6)]Man(a1-6)[Gal(b1-4)GlcNAc(b1-3)Gal(b1-4)GlcNAc(b1-3)Gal(b1-4)GlcNAc(b1-2)Man(a1-3)]Man(b1-4)GlcNAc(b1-4)[Fuc(a1-6)]GlcNAc. In a few lines:
as §1

In test [16] the target is Gal(b1-4)GlcNAc(b1-3)Gal(b1-4)GlcNAc(b1-3)Gal(b1-4)GlcNAc(b1-3)Gal(b1-4)GlcNAc(b1-2)Man(a1-3)[Gal(b1-4)GlcNAc(b1-3)Gal(b1-4)GlcNAc(b1-3)Gal(b1-4)GlcNAc(b1-3)Gal(b1-4)GlcNAc(b1-2)Man(a1-6)]Man(b1-4)GlcNAc(b1-4)GlcNAc. In a few lines: as §1
The target of test [17] is Gal(b1-4)GlcNAc(b1-3)Gal(b1-4)GlcNAc(b1-3)Gal(b1-4)GlcNAc(b1-3)Gal(b1-4)GlcNAc(b1-2)Man(a1-3)[Gal(b1-4)GlcNAc(b1-3)Gal(b1-4)GlcNAc(b1-3)Gal(b1-4)GlcNAc(b1-3)Gal(b1-4)GlcNAc(b1-2)Man(a1-6)]Man(b1-4)GlcNAc(b1-4)[Fuc(a1-6)]GlcNAc. Put shortly:
as §1

The target in test [18] is Gal(b1-4)GlcNAc(b1-3)Gal(b1-4)GlcNAc(b1-3)Gal(b1-4)GlcNAc(b1-3)Gal(b1-4)GlcNAc(b1-2)[Gal(b1-4)GlcNAc(b1-3)Gal(b1-4)GlcNAc(b1-3)Gal(b1-4)GlcNAc(b1-3)Gal(b1-4)GlcNAc(b1-6)]Man(a1-6)[Gal(b1-4)GlcNAc(b1-3)Gal(b1-4)GlcNAc(b1-3)Gal(b1-4)GlcNAc(b1-3)Gal(b1-4)GlcNAc(b1-2)Man(a1-3)]Man(b1-4)GlcNAc(b1-4)[Fuc(a1-6)]GlcNAc. In a few lines: as §1
Test [19] has as its target Gal(b1-4)GlcNAc(b1-3)Gal(b1-4)GlcNAc(b1-3)Gal(b1-4)GlcNAc(b1-3)Gal(b1-4)GlcNAc(b1-3)Gal(b1-4)GlcNAc(b1-2)Man(a1-3)[Gal(b1-4)GlcNAc(b1-3)Gal(b1-4)GlcNAc(b1-3)Gal(b1-4)GlcNAc(b1-3)Gal(b1-4)GlcNAc(b1-3)Gal(b1-4)GlcNAc(b1-2)Man(a1-6)]Man(b1-4)GlcNAc(b1-4)GlcNAc. In a few lines:
as §1

For test [20], the target named is Gal(b1-4)GlcNAc(b1-3)Gal(b1-4)GlcNAc(b1-3)Gal(b1-4)GlcNAc(b1-3)Gal(b1-4)GlcNAc(b1-3)Gal(b1-4)GlcNAc(b1-2)Man(a1-3)[Gal(b1-4)GlcNAc(b1-3)Gal(b1-4)GlcNAc(b1-3)Gal(b1-4)GlcNAc(b1-3)Gal(b1-4)GlcNAc(b1-3)Gal(b1-4)GlcNAc(b1-2)Man(a1-6)]Man(b1-4)GlcNAc(b1-4)[Fuc(a1-6)]GlcNAc. Put shortly: as §1
Test [21] concerns the target Gal(b1-4)GlcNAc(b1-3)Gal(b1-4)GlcNAc(b1-3)Gal(b1-4)GlcNAc(b1-3)Gal(b1-4)GlcNAc(b1-3)Gal(b1-4)GlcNAc(b1-2)[Gal(b1-4)GlcNAc(b1-3)Gal(b1-4)GlcNAc(b1-3)Gal(b1-4)GlcNAc(b1-3)Gal(b1-4)GlcNAc(b1-3)Gal(b1-4)GlcNAc(b1-6)]Man(a1-6)[Gal(b1-4)GlcNAc(b1-3)Gal(b1-4)GlcNAc(b1-3)Gal(b1-4)GlcNAc(b1-3)Gal(b1-4)GlcNAc(b1-3)Gal(b1-4)GlcNAc(b1-2)Man(a1-3)]Man(b1-4)GlcNAc(b1-4)[Fuc(a1-6)]GlcNAc. In a few lines:
as §1

The target of test [22] is Gal(b1-4)GlcNAc(b1-3)Gal(b1-4)GlcNAc(b1-3)Gal(b1-4)GlcNAc(b1-3)Gal(b1-4)GlcNAc(b1-3)Gal(b1-4)GlcNAc(b1-3)Gal(b1-4)GlcNAc(b1-2)Man(a1-3)[Gal(b1-4)GlcNAc(b1-3)Gal(b1-4)GlcNAc(b1-3)Gal(b1-4)GlcNAc(b1-3)Gal(b1-4)GlcNAc(b1-3)Gal(b1-4)GlcNAc(b1-3)Gal(b1-4)GlcNAc(b1-2)Man(a1-6)]Man(b1-4)GlcNAc(b1-4)GlcNAc. In a few lines:
as §1

In test [23] the target is Gal(b1-4)GlcNAc(b1-3)Gal(b1-4)GlcNAc(b1-3)GalNAc. In a few lines:
as §1

The list shows a part of the results.

B1: HBHA-Rv (Mycobacterium tuberculosum), P0A5P6 (protein)
chain: MAENSNIDDIKAPLLAALGAADLALATVNELITNLRERAEETRTDTRSRVEESRARLTKLQEDLPEQLTELREKFTAEELRKAAEGYLEAATSRYNELVERGEAALERLRSQQSFEEVSARAEGYVDQAVELTQEALGTVASQTRAVGERAAKLVGIELPKKAAPAKKAAPAKKAAPAKKAAAKKAPAKKAAAKKVTQK
With B1, the “glycan array binding signal (z-score)” value in test [1] was -0.269; in test [2] it was -0.375; in [3] it was -0.428; in test [4], -0.357; in test [5], -0.107; in test [6] it was 0.371. In addition, the “glycan array binding signal (z-score)” value in test [7] is -0.22; in test [8], 1.21; in test [9], -0.435; in test [10] it was 0.835; in test [11] it was -0.388; in test [12], -0.052. Moreover, the “glycan array binding signal (z-score)” value in test [13] is -0.256; in test [14], -0.449; in [15], -0.41; in test [16], -0.448; in test [17] it was -0.451; in test [18], -0.444. Besides, the “glycan array binding signal (z-score)” value is -0.467 in test [19]; -0.442 in test [20]; -0.4 in test [21]; -0.343 in test [22]; -0.429 in test [23].

The values are drawn from the supplement of paper PMC8728848.
